Measurements published in US20190315859A1 (EUREKA THERAPEUTICS, published 2019).

Target: T1, Recombinant human CD19 ECD-Fc fusion protein (human, UniProt P15391 20-291, biotinylated for the Octet assay (sites not given); not biotinylated when coated for ELISA)
T1 construct: domain: Fc of human IgG1 lacking the CH1 domain and including the hinge region; also called human CD19-Fc; hCD19 ECD-Fc; not shown: Fc of human IgG1 lacking the CH1 domain and including the hinge region
T1 sequence: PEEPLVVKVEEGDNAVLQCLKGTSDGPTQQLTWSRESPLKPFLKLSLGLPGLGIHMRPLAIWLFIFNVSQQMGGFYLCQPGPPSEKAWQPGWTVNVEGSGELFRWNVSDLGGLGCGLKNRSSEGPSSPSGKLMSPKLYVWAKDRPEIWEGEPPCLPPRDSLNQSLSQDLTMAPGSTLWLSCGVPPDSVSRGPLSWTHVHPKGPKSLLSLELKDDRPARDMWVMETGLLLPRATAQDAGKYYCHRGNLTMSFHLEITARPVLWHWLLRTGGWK
Experiment: ELISA, plate coated with human CD19 ECD-Fc, phage clone detected with HRP-conjugated anti-M13 antibody, OD450
Procedure: Individual phage clones from enriched phage display panning pools were incubated in the coated plates. Binding of the phage clones was detected by HRP-conjugated anti-M13 antibodies and developed using HRP substrate. The absorbance was read at 450 nm.

B1: 61 (scFv)
scFv (VL-linker-VH), shown on M13 phage: [about 100 residues left out here]SRGGGGSGGGGSGGGGSLEMAEVQLVESGGGLVQPGGSLRLSCAASGFTVSSNYMSWVRQAPGKGLEWVSVIYSGGSTYYADSVKGRFTISRDNSKNTLYLQMNSLRAEDTAVYYCARERGMGYAFDIWGQGTMVTVSS
notes: hit from protein screening (ELISA); also called clone 61; anti-human CD19 scFv phage clone 61
B1: binds.
